Experimental data from PubChem BioAssay AID485364 (National Center for Advancing Translational Sciences (NCATS), 2010).
In all, about 360,000 compounds went through this assay and about 11,000 (3.1%) were called active. The inconclusive results got no clear call from the source; some entries with a clear call stand among them for comparison. Calls come from the whole dose curve; as a rule, active = well fitted inhibition curve with a large enough effect; inconclusive = small, poorly fitted or top-dose-only effect; inactive = no such curve, though single readings can be large or run the other way. Potencies of inconclusive entries are left out as doubtful fits.

Each molecule was assayed against Schistosoma mansoni thioredoxin glutathione reductase (TGR) (UniProt Q962Y6) (assay: qHTS Assay for the Inhibitors of Schistosoma Mansoni Peroxiredoxins). Settings: purified TGR, DTNB reduction, TNB absorbance 405 nm; series mostly up to 114 µM.
Outline: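 First, TGR (20 nM dispensed) and NADPH were mixed with compound. Second, a 15 min room-temperature incubation followed. Third, further NADPH and then DTNB were added to start the reaction. Finally, TNB absorbance was monitored kinetically.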
Note: nearly all actives have a fitted effect of over 60% in size.
Potency is the fitted concentration of half-maximal effect; tags give direction and shape of the fitted curve.

Question: How did the Potency turn out when `COc1ccc(NC(=O)COC(=O)c2cc(C)oc2C)c([N+](=O)[O-])c1` was run?
Answer: inconclusive [inhibitor, partial curve]

Question: `COc1ccc2c(Sc3ccc(C)cc3)c(C(=O)NC(C)c3ccccc3)[nH]c2c1` (configuration not stated) was tested. Which Potency did it give?
Answer: inactive

Question: `CCCC[C@H]1COCCS(=O)(=O)N1Cc1cccc(F)c1` was tested. Which Potency did it give?
Answer: inconclusive [inhibitor, full curve, poor fit]

Question: How did the Potency turn out when `N#CC(=C=[N-])C1=C(C#N)C(c2ccccc2F)C([n+]2ccccc2)C(O)(C2CC2)N1` (configuration not stated) was run?
Answer: inactive

Question: With `O=C(c1cccc(S(=O)(=O)N2CCCC2)c1)N(Cc1ccco1)C1CCS(=O)(=O)C1` (configuration not stated) as the molecule, how does the Potency read?
Answer: inconclusive [inhibitor, partial curve]

Question: With `Cc1ccc(CNC(=O)C2CC3Cn4c(nc5ccccc54)C3N2C)o1` (configuration not stated) as the molecule, how does the Potency read?
Answer: active: 35.5 µM

Question: For `CCn1c(=O)c2cc(C(=O)NCCN(C)C)sc2c2ccccc21`, which Potency is on record?
Answer: inconclusive [inhibitor, partial curve]

Question: How did the Potency turn out when `CCc1cc(SC#N)cc(C)c1NC(=O)CCl` was run?
Answer: active: 10 µM

Question: With `CCCCNC(=O)c1cc(-c2ccc3c(c2)OCO3)on1` as the molecule, how does the Potency read?
Answer: inactive

Question: `CC(=O)N(C)c1nnc(-c2ccccn2)s1` was tested. Which Potency did it give?
Answer: inactive

Question: With `O=C(Cc1nc2ccccc2s1)c1ccc(O)cc1O` as the molecule, how does the Potency read?
Answer: inconclusive [inhibitor, partial curve]

Question: Which Potency does the source give for `COc1ccc(CCNC(=O)C2c3ccccc3C(=O)N2Cc2ccccc2)cc1OC` (configuration not stated) here?
Answer: inactive

Question: How did the Potency turn out when `O=S(=O)(Nc1ncccn1)c1ccc(NC(=S)Nc2ccccc2)cc1` was run?
Answer: inconclusive [inhibitor, partial curve]

Question: How did the Potency turn out when `COc1ccc(Cl)cc1C(=O)NCCS(=O)(=O)N1CCN(c2ccccc2OC)CC1` was run?
Answer: inactive

Question: How did the Potency turn out when `COc1cccc(OCc2nnc(SCC(=O)NCc3ccco3)n2CCc2ccccc2)c1` was run?
Answer: inconclusive [inhibitor, single point]

Question: For `COc1ccc(Oc2nc3c(c(=O)n(C)c(=O)n3C)n2Cc2ccc(Cl)cc2Cl)cc1`, which Potency is on record?
Answer: inactive

Question: How did the Potency turn out when `COc1ccc(CCNC(=O)CSc2nc(C)nc3sccc23)cc1OC` was run?
Answer: inactive

Question: How did the Potency turn out when `Cc1cc(N2CCN(c3cc(Cl)ccc3C)CC2)n2nc(-c3ccccc3)nc2n1` was run?
Answer: inconclusive [inhibitor, partial curve]

Question: Which Potency does the source give for `O=C(Nc1ccccc1-c1ccccc1)NC1CC2CCCC(C1)N2CCc1ccccc1` (configuration not stated) here?
Answer: inactive

Question: How did the Potency turn out when `CC1CCCN(C(=O)CCl)C1` (configuration not stated) was run?
Answer: inconclusive [inhibitor, partial curve]

Question: For `O=C(C1=COCCO1)N1CCN(C(c2ccccc2)c2ccccc2)CC1`, which Potency is on record?
Answer: inconclusive [inhibitor, partial curve]

Question: How did the Potency turn out when `Cc1nonc1OCCNCc1c(C(=O)N2CCCCCCC2)nc2ccc(Cl)cn12` was run?
Answer: inconclusive [inhibitor, partial curve]

Question: With `Cc1cccc(NC(=O)C2CCN(S(=O)(=O)c3c(C)noc3/C=C/c3ccco3)CC2)c1` as the molecule, how does the Potency read?
Answer: inconclusive [inhibitor, partial curve, poor fit]

Question: How did the Potency turn out when `COc1cc(C(C(=O)NC2CCCC2)N(CCO)C(=O)Cn2nnc(-c3ccc(C)o3)n2)ccc1O` (configuration not stated) was run?
Answer: active: 44.7 µM

Question: For `CCCC(=O)n1nc(-c2ccco2)nc1SCc1ccccc1`, which Potency is on record?
Answer: inconclusive [inhibitor, partial curve]

Question: With `CC(NC(=O)c1ccccc1SCC(=O)N1CCCC1)c1ccc(F)cc1` (configuration not stated) as the molecule, how does the Potency read?
Answer: inactive

Question: `O=C(/C=C/c1ccco1)N(Cc1ccccc1)C1CCS(=O)(=O)C1` (configuration not stated) was tested. Which Potency did it give?
Answer: active: 3.16 µM

Question: Which Potency does the source give for `COc1ccc(-c2cc(C(=O)NCCN3CCOCC3)c3ccccc3n2)c(OC)c1` here?
Answer: inconclusive [inhibitor, single point]

Question: With `COc1cccc(NC(=O)c2ccc(-n3cnnn3)cc2)c1` as the molecule, how does the Potency read?
Answer: inactive

Question: For `COc1ccc(CN2CCN(CCc3ccccc3)C(CCO)C2)cc1Cn1cncn1` (configuration not stated), which Potency is on record?
Answer: inactive

Question: How did the Potency turn out when `Cc1ccc(Nc2nc(N)c3ccccc3n2)cc1C` was run?
Answer: inactive

Question: With `COC(=O)c1ccc(-c2ccc(C(c3c(C)[nH][nH]c3=O)c3c(C)[nH][nH]c3=O)o2)cc1` as the molecule, how does the Potency read?
Answer: active: 8.91 µM

Question: `COC(=O)N1C(=O)[C@@](c2ccc(OC)cc2)(C(C)C)N1C(=O)OC` was tested. Which Potency did it give?
Answer: active: 28.2 µM

Question: Which Potency does the source give for `Cc1onc(-c2ccccc2Cl)c1C(=O)NC(=S)Nc1ccc(C(C)(C)C)cc1` here?
Answer: inactive

Question: `CCOc1cc(C(=O)Nc2ccc3c(c2)n(C)c(=O)c(=O)n3C)cc(OCC)c1OCC` was tested. Which Potency did it give?
Answer: inactive

Question: `O=c1c(/C=N/Nc2ccccc2)c(Sc2nnnn2-c2ccccc2)nc2ccccn12` was tested. Which Potency did it give?
Answer: inconclusive [inhibitor, partial curve, poor fit]

Question: How did the Potency turn out when `O=C(NCCCN1CCOCC1)c1cnn2c(-c3ccccc3)cc(-c3ccccc3)nc12` was run?
Answer: inconclusive [inhibitor, single point]

Question: For `CC(Sc1nc(C2CC2)n(-c2ccccc2)n1)C(=O)c1c(N)n(C)c(=O)n(C)c1=O` (configuration not stated), which Potency is on record?
Answer: inconclusive [inhibitor, full curve, poor fit]

Question: For `Cc1ccc2nc(SC(C)C(=O)NCc3ccco3)[nH]c2c1` (configuration not stated), which Potency is on record?
Answer: inconclusive [inhibitor, single point]

Question: `CSc1ccc(C(=O)NC2CCSc3ccccc32)cc1` (configuration not stated) was tested. Which Potency did it give?
Answer: inactive

Question: Which Potency does the source give for `COc1ccccc1N(CC(=O)NCCSCc1ccco1)S(=O)(=O)c1ccccc1` here?
Answer: active: 50.1 µM

Question: With `CC(C)(C)OC(=O)N1CCC(c2c(C(=O)N3CCN(C(=O)c4ccco4)CC3)cnn2-c2ccc(F)cc2F)CC1` as the molecule, how does the Potency read?
Answer: inconclusive [inhibitor, partial curve]

Question: `Cc1cc(NC(=O)CCCC(=O)N(CC(=O)NC2CCCCC2)c2ccccc2)no1` was tested. Which Potency did it give?
Answer: inconclusive [inhibitor, partial curve]

Question: For `Cc1ccccc1CS(=O)(=O)c1ccc(C(=O)N2CCC(C)CC2)cc1[N+](=O)[O-]`, which Potency is on record?
Answer: active: 89.1 µM

Question: For `COCCNC(=O)C(OC(=O)c1ccco1)c1ccccc1Cl` (configuration not stated), which Potency is on record?
Answer: inconclusive [inhibitor, partial curve, poor fit]

Question: Which Potency does the source give for `Clc1ccc(-c2nc(Cc3ccccc3)no2)cc1` here?
Answer: inconclusive [inhibitor, full curve, poor fit]

Question: For `N#Cc1c(-c2ccccc2Cl)cc(C2CC2)nc1N`, which Potency is on record?
Answer: inconclusive [inhibitor, single point]

Question: How did the Potency turn out when `CC(NCCC1(C(C)C)CCOC(C)(C)C1)c1cccs1` (configuration not stated) was run?
Answer: inconclusive [inhibitor, partial curve]

Question: `O=C(Nc1ccc(Cl)cc1)c1cc2c(cc1O)[nH]c1ccccc12` was tested. Which Potency did it give?
Answer: inactive

Question: For `O=C1c2cccc3cc(Br)cc(c23)C(=O)N1Nc1ccc(Br)cc1`, which Potency is on record?
Answer: inactive

Question: `C#CCOCCOCCOCCNc1nc(N2CCN(C(=O)[C@H]([C@@H](C)CC)n3cc([C@@H](N)CC(C)C)nn3)CC2)nc(N2CCN(C(=O)[C@H](Cc3cc4ccccc4[nH]3)n3cc([C@@H](N)C(C)CC)nn3)CC2)n1` (some centres not stated) was tested. Which Potency did it give?
Answer: inconclusive [inhibitor, partial curve]

Question: `Cc1ccc(/C=C2\C(=O)NC(=O)N(CCc3ccc(F)cc3)C2=O)s1` was tested. Which Potency did it give?
Answer: inconclusive [inhibitor, full curve]

Question: `COc1ccc(-n2nc([N+](=O)[O-])c(=NCCc3ccc(OC)c(OC)c3)n2O)cc1` was tested. Which Potency did it give?
Answer: active: 35.5 µM

Question: With `Cc1ccc(C(=O)O/N=C2\CCCc3ccccc32)cc1` as the molecule, how does the Potency read?
Answer: inactive

Question: Which Potency does the source give for `O=[N+]([O-])c1ccc(NC(=S)N/C(=N/CS(=O)(=O)c2ccccc2)c2ccccc2)cc1` here?
Answer: active: 20 µM

Question: Which Potency does the source give for `Cc1cccc(NC(=S)NN2CCN(C)CC2)c1` here?
Answer: inconclusive [inhibitor, single point]

Question: How did the Potency turn out when `O=C(CC1C(=O)NCCN1CC(c1ccccc1)c1ccccc1)NC1CC1` (configuration not stated) was run?
Answer: inconclusive [inhibitor, partial curve]

Question: `COc1ccc(NC(=O)CSCC(=O)Nc2sccc2C#N)cc1` was tested. Which Potency did it give?
Answer: inconclusive [inhibitor, partial curve]

Question: With `CC(=O)c1cc(F)c(N2CCN(C(=O)c3ccco3)CC2)cc1C` as the molecule, how does the Potency read?
Answer: inconclusive [inhibitor, partial curve]

Question: `C/C(=N\NC(=O)c1nnn(-c2nonc2N)c1CN(C)c1ccccc1)c1cccc(O)c1` was tested. Which Potency did it give?
Answer: inactive

Question: How did the Potency turn out when `O=C(O)c1nn(-c2ccccc2-c2n[nH]c(=O)[nH]c2=O)c(=O)[nH]c1=O` was run?
Answer: active: 11.2 µM

Question: How did the Potency turn out when `Cn1c(O)c(N=Nc2ccccc2)c2ccccc21` was run?
Answer: active: 44.7 µM

Question: Which Potency does the source give for `CCCn1nnnc1NCc1ccccc1Cl` here?
Answer: inconclusive [inhibitor, partial curve, poor fit]

Question: How did the Potency turn out when `COC(=O)Cc1nc(NC(=O)c2cccs2)sc1C` was run?
Answer: inactive

Question: `O=c1cc(CN2CCN(c3ccccc3)CC2)c2cc(O)c(-c3ccccc3)cc2o1` was tested. Which Potency did it give?
Answer: inconclusive [inhibitor, single point]

Question: `CCc1ccc(C(O)(C(C)C)C(CN2CCOCC2)c2ccccc2)cc1` (configuration not stated) was tested. Which Potency did it give?
Answer: inactive

Question: For `Cc1ccc(C)c(CN2C(=O)C3CCCN3c3ccc(C#N)cc32)c1` (configuration not stated), which Potency is on record?
Answer: inconclusive [inhibitor, full curve]

Question: For `O=c1[nH]c(=O)n(Cc2ccco2)c(O)c1/C=N/N1CCCCC1`, which Potency is on record?
Answer: inconclusive [inhibitor, partial curve]

Question: For `CCOc1ccc(C2=CC(c3cccc(Br)c3)n3c(nc4ccccc43)N2)cc1Cl` (configuration not stated), which Potency is on record?
Answer: inconclusive [inhibitor, partial curve]

Question: For `Cc1ccccc1OCCn1c(=N)n(C(C)C)c2ccccc21`, which Potency is on record?
Answer: inactive

Question: With `O=c1c2sc3ccccc3c2n(Cc2cccc(Cl)c2)c(=O)n1Cc1ccco1` as the molecule, how does the Potency read?
Answer: inconclusive [inhibitor, partial curve]

Question: For `COC(=O)C1=NN[C@H](C(=O)OC(C)(C)C)[C@H]1c1ccccc1`, which Potency is on record?
Answer: inconclusive [inhibitor, full curve]
